Test results taken from a compilation of properties of binary mixtures (doi:10.1021/je1012444).
Some of these densities may be calculated back from excess volumes.

Experiment: xn = mol fraction of the nth substance listed
Conditions: 100 kPa

CCCC[n+]1ccn(C)c1.F[P-](F)(F)(F)(F)F + CCO
mass density (313.2 K, x2 = 0.1): 1340 kg/m3
mass density (313.2 K, x2 = 0.2): 1315 kg/m3
mass density (313.2 K, x2 = 0.4035): 1262 kg/m3
mass density (313.2 K, x2 = 0.4959): 1235 kg/m3
mass density (333.2 K, x2 = 0.1): 1320 kg/m3
mass density (333.2 K, x2 = 0.2): 1298 kg/m3
mass density (333.2 K, x2 = 0.2892): 1284 kg/m3
mass density (333.2 K, x2 = 0.4035): 1246 kg/m3

CCCC[n+]1ccn(C)c1.F[P-](F)(F)(F)(F)F + c1ccccc1
mass density (313.2 K, x2 = 0.0999): 1335 kg/m3
mass density (313.2 K, x2 = 0.2002): 1314 kg/m3
mass density (313.2 K, x2 = 0.3003): 1289 kg/m3
mass density (313.2 K, x2 = 0.3953): 1260 kg/m3
mass density (313.2 K, x2 = 0.5001): 1226 kg/m3
mass density (313.2 K, x2 = 0.6779): 1149 kg/m3
mass density (333.2 K, x2 = 0.0999): 1317 kg/m3
mass density (333.2 K, x2 = 0.2002): 1296 kg/m3
mass density (333.2 K, x2 = 0.3003): 1272 kg/m3
mass density (333.2 K, x2 = 0.3953): 1242 kg/m3
mass density (333.2 K, x2 = 0.5001): 1210 kg/m3
